Reference: a compilation of properties of binary mixtures (doi:10.1021/acs.jced.1c00419)
The densities may have been worked out from excess volumes.

Test: xn = mol fraction of the nth substance listed
Details: 101.3 kPa

NC1CCCCC1 + CCCCCCCCn1cc[n+](C)c1.F[B-](F)(F)F
x2 = 0
Details | mass density [kg/m3]
293.15 K | 867.4
303.15 K | 858.3
323.15 K | 840.1

NC1CCCCC1 + CCCCCC[n+]1ccn(C)c1.F[B-](F)(F)F
x2 = 0
Details | mass density [kg/m3]
293.15 K | 867.4
298.15 K | 862.9
303.15 K | 858.3
308.15 K | 853.8
313.15 K | 849.2
318.15 K | 844.7
323.15 K | 840.1

NC1CCCCC1 + CCCC[n+]1ccn(C)c1.F[B-](F)(F)F
mass density [kg/m3]
Details | x2 = 0 | x2 = 0.0982 | x2 = 0.2032 | x2 = 0.301 | x2 = 0.4012 | x2 = 0.4828 | x2 = 0.6016 | x2 = 0.7124 | x2 = 0.8012 | x2 = 0.9024
293.15 K | – | 922.1 | 973.2 | 1014.7 | 1052 | 1079.2 | 1114.3 | 1142.9 | 1163.6 | –
298.15 K | 862.9 | 918.3 | 969.5 | 1011 | – | 1075.9 | – | 1140 | 1160.8 | 1182.2
303.15 K | 858.3 | 914.2 | 965.8 | 1007.2 | 1044.8 | 1072.3 | 1107.8 | – | 1157.6 | 1179
308.15 K | – | 910.2 | 962 | 1003.5 | 1041.2 | 1068.6 | 1104.1 | 1133.2 | 1153.8 | 1175.4
313.15 K | 849.2 | 906.2 | 958 | – | 1037.5 | 1064.9 | 1100.2 | 1129.3 | 1149.6 | –
318.15 K | 844.7 | 901.8 | 954 | – | 1034.3 | 1061.5 | 1096.8 | 1126 | 1147 | 1167.9
323.15 K | – | 897.6 | 950.1 | 992.6 | 1030.8 | 1058.4 | – | 1122.9 | 1143.9 | 1164.6

CCCCCCCCn1cc[n+](C)c1.F[B-](F)(F)F + NC1CCCCC1
mass density [kg/m3]
Details | x1 = 0.1076 | x1 = 0.203 | x1 = 0.3072 | x1 = 0.4001 | x1 = 0.492 | x1 = 0.6078 | x1 = 0.7023 | x1 = 0.7996 | x1 = 0.8963
293.15 K | – | 961.7 | – | 1018.7 | – | 1059 | 1073.2 | 1086 | –
298.15 K | 919.4 | – | 991.1 | 1015 | 1034.9 | 1055.4 | – | 1082.6 | 1094
303.15 K | – | – | 987.3 | 1011.2 | 1031.2 | 1051.9 | 1066.2 | 1079.2 | 1090.6
308.15 K | 911 | 949.6 | – | 1007.8 | 1027.7 | 1048.4 | 1062.8 | 1076 | 1087.3
313.15 K | 906.9 | 945.7 | 979.7 | 1004 | – | 1045 | 1059.4 | 1072.6 | 1084
318.15 K | 902.5 | 941.5 | – | – | 1020.3 | – | – | 1069 | 1080.4
323.15 K | – | 937.3 | 971.6 | 996.3 | 1016.5 | 1037.7 | 1052.3 | 1065.5 | –

CCCCCC[n+]1ccn(C)c1.F[B-](F)(F)F + NC1CCCCC1
mass density [kg/m3]
Details | x1 = 0.097 | x1 = 0.1808 | x1 = 0.2945 | x1 = 0.396 | x1 = 0.5009 | x1 = 0.6048 | x1 = 0.7029 | x1 = 0.8008 | x1 = 0.8991
293.15 K | 920.8 | 958.8 | 1001.4 | – | 1059.4 | 1082.4 | 1101.2 | – | 1133.7
298.15 K | – | – | 997.5 | 1028.9 | 1055.9 | 1078.8 | 1097.7 | 1114.6 | –
303.15 K | 912.6 | 950.8 | 993.5 | 1024.9 | 1052.1 | – | 1094.2 | 1111.1 | 1126.7
308.15 K | 908.3 | 946.6 | 989.5 | 1020.9 | 1048.2 | 1071.1 | 1090.2 | – | –
313.15 K | – | 942.7 | 985.8 | 1017.4 | 1044.7 | – | 1087.1 | 1104.1 | 1119.9
318.15 K | 899.9 | 938.5 | 981.9 | 1013.9 | 1041.4 | 1064.6 | 1083.8 | 1100.9 | –
323.15 K | 895.4 | 934.2 | – | – | – | 1060.5 | – | 1096.8 | 1112.5
